The text below walks through data of the RNAGym collection of RNA variant scans (doi:10.7554/elife.90254).

The source gives no read counts; variants with many changes may rest on few reads.

B1: LINE1-mini (parent)
chain: GGCAGAGCUCAACACAGCGUGGCAAAGUGGCUGUGGCUAGACUGCC

This data set covers variants of B1. The experiment in a line: self-cleavage, relative activity (ratio to wild type); higher = more cleavage; in vitro, sequencing; the parent is a self-cleaving ribozyme.
Regarding GGUAGAGUACAACACAGCGUGGCAAAGUGGCUGUGGCUAGACUGCC [C3U C8U U9A], the self-cleavage was determined as 0.69.
Next, GGUAGAGCUCAAAACAACGUGGCAACGUGGCUGUGGCUAGACUGCC [C3U C13A G17A A26C]: 0.05; GGUAGAGUUCAGCACAGCGUGGCAAAGUGGCUGUGGCUUGACUGGC [C3U C8U A12G A39U C45G]: 0.02; GGUAGAGCUGAACACAGCGUGGCAAAGUGGCUGUGGCUAGCCUGCC [C3U C10G A41C]: 0.03.
GGUAGAGCUAAACACAGCGUGGCAAAGUGGCUGCGGCUAGACUGAC [C3U C10A U34C C45A]: the self-cleavage came out at 0.01.
Next, GGUAGAGCUCAAAAUAGCGUGGUAAAGUGGCUGUGGAUAGAAUGCC [C3U C13A C15U C23U C37A C42A]: 0.89; GGUAGAGCUCAAGGCAGGCUGGCAAAGUGGCUGUGGCUGAACUGUC [C3U C13G A14G C18G G19C A39G G40A C45U]: 0.05.
As for GGUAGAGAUCAACACAGCGUGGCAAAGUGGCUGAGGCUAGACUGCC [C3U C8A U34A], the self-cleavage came to 0.33.
Consider GGUAGAGCUAAACACAGCGUGGCAAAGUGGCUGUGGCCAGACUGCC [C3U C10A U38C], for which the self-cleavage was 0.28.
Consider GGUAGAGCUGAACCAAGCGUGGCAAAGUGGCUGUGGCUAGACUGCC [C3U C10G A14C C15A], for which the self-cleavage amounted to 0.02.
Next, GGUAGAGCUCAACACUGCGAGGCAAAGUGGCUAUGGAUAGACUGCC [C3U A16U U20A G33A C37A]: 0.03; GGUAGAGCUGAAGACAGCGUGGCAAAGUGGCUGUGGCUAGACUGCC [C3U C10G C13G]: 0.04.
Regarding GGUAGAGACCAACACAGCGUGGCAAAGUGGCUGUGGCUAGACUGCC [C3U C8A U9C], the self-cleavage is 0.09.
Regarding GGUAGAGCUCAACACAGCGUGGCAAGGUGGCUGUGGCUAGAUUGCC [C3U A26G C42U], the self-cleavage came to 0.09.
Consider GGUAGAGCUCAACACAGCGUGGCAAUGUGGCUGUGGCCUGACUACC [C3U A26U U38C A39U G44A], for which the self-cleavage worked out at 1.8.
As to GGUAGAGCUCAACACUGUAAGACAACGUGGCUGUGGCUAGACUGCC [C3U A16U C18U G19A U20A G22A A26C], the self-cleavage was determined as 0.03.
Turning to GGUAGAGCUAAACACAGCGUGGCAAAGUGGCUGUGGCUAGACUGCU [C3U C10A C46U], the self-cleavage was 0.02.
For the variant GGUAGAGCUAAACACAGCGUGGCAAAGUGGCUGUGGCUAGACUGUC [C3U C10A C45U], the self-cleavage was 0.06.
As to GGUAGAGCUCAACACAGCGUGGCUAAGUGCCUGUGGCUAGACUGCC [C3U A24U G30C], the self-cleavage stood at 0.18.
As for GGUAGAGCUAAUCACAGCGUGGCAAAGUGGCUGAGUCUAGACUGCC [C3U C10A A12U U34A G36U], the figure is 0.02; as for GGUAGAGCUCAAAACAGCGCGGCAAAGUGGCUGUUGCUAGACUGCC [C3U C13A U20C G35U], 0.32.
Take GGUAGAGCUGAACACAGCGUGAGAAAGUGGCUGUGGCUAGACUGCC [C3U C10G G22A C23G]: the self-cleavage was determined as 0.02.
For the variant GGUAGAGCUCAACACGGCGUGGCAAAGUCGCUGUGGCUAGACUGCC [C3U A16G G29C], the self-cleavage turned out to be 0.07.
For GGUAGAGUUCAACAUAGCGUGGCAAAGUGACUGUGGCUAGACUGCC [C3U C8U C15U G30A], the self-cleavage was determined as 1.1.
Turning to GGUAGAGCUCAACACAGCGUGGCAACGUGGCUGUGCCUCGACUGCC [C3U A26C G36C A39C], the self-cleavage worked out at 0.02.
For the variant GGUAGAGCUAAACACAGCGUGGCAAAGUGGCUGGGGCUAGACUGCC [C3U C10A U34G], the self-cleavage amounted to 0.03.
GGUAGAGUUCUACACAGCGUGGCAAAGUGGCUGUGGCUAGACUGCC [C3U C8U A11U]: the self-cleavage worked out at 0.05.
GGUAGAGAUCAACACAGCGUGGCAAAGUGGCUGUGGCUACACUGCC [C3U C8A G40C]: the self-cleavage worked out at 0.08.
Turning to GGUAGAGCUCAACACAGCGUGGCAGAGUGGCUGUGGCUAGACCACC [C3U A25G U43C G44A], the self-cleavage is 0.13.
Take GGUAGAGCUCAACACAGCGUGGCACAGUGGCCGUGGCUGGACUGCC [C3U A25C U32C A39G]: the self-cleavage came out at 0.06.
Next, GGUAGAGCUCAACACAGCGUGGCUAAGUUGCUGUGGCUAGAUUGCU [C3U A24U G29U C42U C46U]: 0.04; GGUAGAGCUAAAGACAGCGUGGCAAAUUGGCUUUGGCUAGACUGCC [C3U C10A C13G G27U G33U]: 0.01.
Regarding GGUAGAGCUGAACACAGCGUGGCAAAGUGAUUGUGGCUACACUGUC [C3U C10G G30A C31U G40C C45U], the self-cleavage is 0.01.
For the variant GGUAGAGCUCAACACUGCGUGGAAAAGUGGCUGUGGCUAGACUGCC [C3U A16U C23A], the self-cleavage stood at 0.12.
As for GGUAGAGCUCAAGACAGCGUGGCUAAGUGGCAGUGGCUAGACUGCC [C3U C13G A24U U32A], the figure is 0.06; as for GGUAGAGCUCAACACUGCGUGGUAAAGUGGCUGUGGCUAGACUUCC [C3U A16U C23U G44U], 0.04.
As for GGUAGAGCUAAACACAGCGUGGCAAUGUGGCUGUCGCUAGACUGCC [C3U C10A A26U G35C], the figure is 0.02; as for GGUAGAGCUAAACACAGCGUGGCGAAAUGGCUGUGGCUAGACUGCC [C3U C10A A24G G27A], 0.02.
Consider GGUAGAGCUCAACACAGCGUGGCAAGGUGGCUGUGGCUAGAUUGUC [C3U A26G C42U C45U], for which the self-cleavage amounted to 0.07.
As for GGUAGAGCUAAACCCUGCGUGGCCAAGUGGCUGUGGCUAGACUGCC [C3U C10A A14C A16U A24C], the figure is 0.02; as for GGUAGAGCUCAACACCGCGUGGCAAAGUGGCUGAGGAGAGACUGCC [C3U A16C U34A C37A U38G], 0.02.
As to GGUAGAGCUGAACAGAGCGUGGCAAAGUGUCUGUUGCUAGACUGCC [C3U C10G C15G G30U G35U], the self-cleavage was 0.02.
As to GGUAGAGCUCAACACAGCGUGGCACAGUGGCUGUCGCUAGACUGUC [C3U A25C G35C C45U], the self-cleavage stood at 0.07.
In the case of GGUAGAGCUCAACACGGCGUGGCAAAGUGGCUCUGGCUAGGCUGCC [C3U A16G G33C A41G], the self-cleavage amounted to 0.12.
Turning to GGUAGAGUUCAACACAGCGUGGCAAAGUGGCUGAGGCUAGACUGCC [C3U C8U U34A], the self-cleavage came out at 0.12.
Regarding GGUAGAGCUAAACACAGCGUGCCAAAGUGGCUGUGGCUAGGCUGCC [C3U C10A G22C A41G], the self-cleavage was found to be 0.01.
GGUAGAGGUCAACACACCGUGGCAAAGUGGCUGUGGCUAGACUGCC [C3U C8G G17C]: the self-cleavage was 0.03.
Take GGUAGAGUUUAACACAGCGUGGCAAAGUGGCUGUGGCUAGACUGCC [C3U C8U C10U]: the self-cleavage was 0.14.
For the variant GGUAGAGAUCAACACAGAGUGGCAUAGUGGCUGUGGCUAGACUGCC [C3U C8A C18A A25U], the self-cleavage came out at 0.2.
As for GGUAGAGCUCAAGGCAGCGUGGGAAAGUGGCUGUGGCUAGAUUGCC [C3U C13G A14G C23G C42U], the self-cleavage was 0.06.
Turning to GGUAGAGUUCAACACACCGUGGCAAAGUGGCUGUGGCUAGACUGCC [C3U C8U G17C], the self-cleavage was determined as 0.29.
For the variant GGUAGAGAUCAUCACAGCGUGGCAAAGUGGCAGUGGCUAGACUGCC [C3U C8A A12U U32A], the self-cleavage is 0.01.
As for GGUAGAGUUCAACUCAGCGUAGCAACGUGGCUGUGGCUAGACUGCC [C3U C8U A14U G21A A26C], the figure is 0.25; as for GGUAGAGCUAGUCACAGCGUGGCAAAGUGGCUGUGGCUAGACUCCC [C3U C10A A11G A12U G44C], 0.04.
Turning to GGUAGAGCUAAACACAACGUGGCAAAGUGGCUGUGGAUAGACUGCC [C3U C10A G17A C37A], the self-cleavage was 0.01.
As for GGUAGAGCUCAACACUGCGUGGCACUGUGGCUGUGGCUAGACUGCC [C3U A16U A25C A26U], the figure is 0.04.
